These results are taken from PubChem BioAssay (NCI).

Several values for one entry are separate records, joined by “and”; a condition that tells them apart may be missing. Equal entries are not always repeated.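 1) Cells in 96-well plates. 2) Compound, 48 h, 5 concentrations. 3) Linear interpolation between surrounding doses. 4) Unreached endpoint = highest concentration. Abbreviation: GI50, concentration required for 50% inhibition of growth. At the TGI there is no net growth.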

The experiment deals with NCI-H322M lung. Briefly: NCI-60 cell line screen, 48 h.
For `NS(=O)(=O)c1nnc(NS(=O)(=O)c2ccc([N+](=O)[O-])cc2)s1`, the TGI was greater than 100 µM.
For the compound `COc1ccc2oc(C(=O)N3CC(CCl)c4ccc(N)cc43)cc2c1` (stereo not drawn), the TGI is 29.3 µM.
Still for that read-out and setting: then `[N-]=[N+]=Nc1ccc2c(c1)Sc1ccccc1N2CCCCN1CCN(C(=O)CCNC(=O)Cc2ccc(C(=O)c3ccccc3)cc2)CC1`, with greater than 71 µM; and `COc1cc(CN(c2ccc(C)cc2)C2OC(=O)c3ccccc32)cc(OC)c1OC` (stereo not drawn), with greater than 100 µM.
Regarding `O=C(CN(/C=C/C(=O)C(F)(F)F)c1ccccc1)c1ccc(Cl)cc1`, the GI50 was 17.9 µM and the TGI amounted to 58.5 µM.
The compound `CN(C)N=Nc1ccc2[nH]c(=O)[nH]c2c1` came in with a TGI greater than 100 µM.
For the compound `O=C(O)Cn1ccc2ccccc21`, the GI50 was greater than 100 µM and the TGI is greater than 100 µM.
For the compound `Cc1cc2nnc(C(N)=O)c(N)c2cc1C`, the TGI is greater than 100 µM.
For the compound `c1cc[c]([Sn]([O]c2cccc3cccnc23)([O]c2cccc3cccnc23)[c]2ccccc2)cc1`, the GI50 was 1.58 µM and the TGI came to 2.94 µM.
The compound `CCCCCCCCCCOC(=O)c1cc[n+](C)cc1` came in with a TGI of 32.8 µM.
With `COc1ccc2c(c1)CCc1c(CO)c(COC(=O)NC(C)C)n(C)c1-2`, the TGI was greater than 77.7 µM.
Still for that read-out and setting: then `CC(=O)n1nc(-c2ccc3ccccc3c2)nc1C`, with greater than 100 µM; and `N#Cc1c(-c2ccc([N+](=O)[O-])cc2)cc(-c2ccc(Nc3ccnc4cc(Cl)ccc34)cc2)nc1N`, with 52.8 µM.
Take `C/C(O[Si](C(C)C)(C(C)C)C(C)C)=C(\C)C(=O)N(C)c1ccccc1Cl`: the TGI was greater than 100 µM.
`CC(C)(C)c1nc(-c2cccc(NS(=O)(=O)c3c(F)cccc3F)c2F)c(-c2ccnc(N)n2)s1`: the GI50 was 54.2 µM and the TGI was greater than 100 µM.
Consider `CC1=C(C(=O)Nc2ccccc2)C(c2cc(Cl)cc(Cl)c2)C(C(=O)Nc2ccccc2)=C(C)N1`, for which the TGI is 26.6 µM.
On the same count and under the same terms, then `OC12c3ccccc3C1CCCCCC21OCCCO1` (stereo not drawn), with greater than 100 µM.
Regarding `COc1cc2nc(-c3cccc4cccnc34)nc(NC3CCN(Cc4ccccc4)CC3)c2cc1OC`, the GI50 is 1.06 µM and the TGI stood at 2.29 µM.
With `CCC[CH2][Sn]([CH2]CCC)([O]C(=O)c1cccc(F)c1F)[O]C(=O)c1cccc(F)c1F`, the GI50 is 1.71 µM and the TGI amounted to 3.14 µM.
In the case of `COc1ccc2[nH]c(C(=O)OCc3ccc4cccc(O)c4n3)cc2c1`, the GI50 is 1.78 µM and the TGI was found to be 4 µM.
Consider `COc1cc(-c2cc3ncccc3c3[nH]c(=O)c4cccnc4c23)cc(OC)c1OC`, for which the GI50 is 0.798 µM and the TGI was greater than 100 µM.
For the compound `Cc1ccc(O)c(NC2=C(Cl)C(=O)N(Cc3ccccc3)C2=O)c1`, the GI50 is 97.1 µM and the TGI is greater than 100 µM.
On to `COc1cc2c3c(c1OC)C(=O)C=C3N(S(=O)(=O)c1ccc(C)cc1)CC2`, for which the TGI was greater than 100 µM.
On the same count and under the same terms, then `C[n+]1cn(-c2nc3ccccc3nc2[N-]S(=O)(=O)c2ccccc2)c2ccccc21`, with greater than 100 µM; and `Nc1ccccc1C(=O)NC(=O)Nc1ccc(Oc2ncc(Br)cn2)c(Cl)c1`, with 48.5 µM.
On to `O=C(Nc1ccc2c(c1)OCCO2)C(=O)c1c[nH]c2ccccc12`, for which the GI50 is 11.6 µM and the TGI is greater than 100 µM.
The compound `COc1ccc2c(c1)[n+](=O)c(C(=O)CC(=O)C(=O)Nc1cccc(C)c1C)c(C)n2[O-]` displayed a TGI greater than 100 µM.
On the same count and under the same terms, with `COC(=O)CC(C(C(C)=O)C(=O)OCc1ccccc1)N1C(=O)OC(c2ccccc2)C1c1ccccc1` (stereo not drawn) the figure was greater than 100 µM.
Still for that read-out and setting: then `O=P1(Cc2ccccc2)c2ccccc2-c2ccccc21`, with 75 µM; and `CCN(CC)c1ccc(N=Nc2ccc(-c3nc4cccn(C)c-4n3)cc2)cc1`, with 44.8 µM.
Same read-out and setting: then `COC(=O)CC(=O)NCC1=CCC(=O)CC1`, with greater than 100 µM.
Take `NCCNC(=O)CN(CC(=O)O)C1CCCCC1N(CC(=O)O)CC(=O)O` (stereo not drawn): the TGI is greater than 100 µM.
`CNCCCNc1c2ccccc2nc2cccc([N+](=O)[O-])c12`: the TGI is 0.0232 µM and 0.0285 µM.
For the compound `O=C(NC1(C(=O)O)CCCC1)c1ccccc1`, the TGI is greater than 100 µM.
The same measure, in the same setting: with `c1ccc(C2CC(c3ccc4ccccc4c3)=Nc3ccccc3S2)cc1` (stereo not drawn) the figure was 47.9 µM; with `O=c1c2cccnc2ncn1CCCN1CCCC1`, greater than 100 µM.
Regarding `CCN(CC)c1ccc(/C=N/NC(=O)CSc2nc3ccccc3c(=O)n2Cc2ccc(S(N)(=O)=O)cc2)c(O)c1`, the GI50 is 0.575 µM and the TGI was greater than 100 µM.
`O=C1C=C(Nc2ccc(S(=O)(=O)Nc3ncccn3)cc2)c2ccccc2C1=O` yielded a TGI of 47.7 µM.
Turning to `CCc1nc2cc(/C=C/C(=O)NO)ccc2c(=O)n1CCc1ccc(OC)cc1`, the GI50 was 2.92 µM and the TGI came out at 41.6 µM.
`CCC(=O)C(C(=O)CC)c1c(OC(=O)c2ccccc2)ccc(O)c1C(=O)OC`: the TGI is greater than 100 µM.
Take `COc1ccc(-c2nn3ncccc3c2-c2ccnc(Nc3ccc4c(c3)OCCO4)n2)cc1`: the GI50 was 9.4 µM and the TGI is greater than 25 µM.
Consider `COC[C@H]1C(=O)NCC(=O)N2N=CCC[C@H]2C(=O)N(O)[C@H](C)C(=O)O[C@@H](C(C)C)[C@H](NC(=O)[C@@](C)(O)[C@]2(O)CC[C@@H](CC(C)C)[C@H](C)O2)C(=O)N2NCCC[C@@H]2C(=O)N1O`, for which the TGI was determined as 0.0422 µM.
On the same count and under the same terms, with `O=c1[nH]c(=O)n([C@@H]2O[C@H](CO)[C@@H](O)[C@@H]2F)cc1I` the figure was greater than 100 µM; with `CC(C)=C[C@@H]1O[C@H](O)[C@@H]([C@H]2CC[C@@]3(C)[C@@H]4CC[C@H]5C(C)(C)C(=O)CC[C@@]56C[C@@]46CC[C@]23C)[C@@H]1O`, 35.4 µM.
In turn, `COc1cc(C2c3cc4c(cc3[C@@H](N(C)c3ccc(N(C)C)cc3)C3COC(=O)C23)OCO4)cc(OC)c1O` (stereo partly drawn) displayed a TGI greater than 100 µM.
On the same count and under the same terms, with `COc1cc(OC)c(OC)cc1/C=C/c1cc[n+](C)c2ccccc12` the figure was greater than 100 µM.
The same measure, in the same setting: then `O=C(NC(=O)c1cn(CCN2CCN(C(=O)NCCCCCCNC(=O)N3CCN(CCn4cc(C(=O)NC(=O)OCc5ccccc5)c(=O)[nH]c4=O)CC3)CC2)c(=O)[nH]c1=O)OCc1ccccc1`, with greater than 100 µM; and `Cc1cc(C)nc(NS(=O)(=O)c2ccc(NC(=O)c3cc([N+](=O)[O-])cc([N+](=O)[O-])c3)cc2)n1`, with greater than 100 µM.
Still for that read-out and setting: then `C=CCn1c(-c2ccc(Cl)cc2)csc1=Nc1ccccc1OC`, with greater than 100 µM.
As to `C=C(CN1c2ccccc2Sc2ccccc21)c1ccc(C(=O)Nc2ccccc2N)cc1`, the GI50 is greater than 82.1 µM and the TGI is greater than 100 µM.
`CC[n+]1c(/C=C/c2ccc(N(CCCl)CCCl)cc2)ccc2cc(I)ccc21` registered a TGI of 5.67 µM.
On to `COc1ccc2nc3cccc([N+](=O)[O-])c3c(NCCNCCN(C)C)c2c1`, for which the GI50 was 0.23 µM and the TGI was 2.18 µM.
As for `CCOc1ccc(C(C)=O)cc1NC(=O)c1cccc(-c2nnn(CC)n2)c1`, the GI50 is 15.7 µM and the TGI was greater than 100 µM.
Regarding `O=C1/C(=C/c2ccccc2)CCCc2ccccc21`, the TGI was 45.4 µM.
The same measure, in the same setting: then `O=C(/C(=N/Nc1ccccc1)c1ccc([N+](=O)[O-])cc1)c1ccc([N+](=O)[O-])cc1`, with greater than 100 µM; and `Nc1c2cc3ccc2nc2ccc(cc12)OCCOCCOCCOCCOCCOCCO3`, with greater than 10 µM.
For `Cc1c(C)c2c(c(C)c1OCC(=O)O)CC[C@@](C)(CCC[C@@H](C)CCC[C@@H](C)CCCC(C)C)O2`, the GI50 was 84.4 µM and the TGI is 161 µM.
`CCC(=O)Nc1ccc(NCC(=O)Nc2ccc(OC)cc2)cc1` returned a TGI of 49 µM.
Turning to `CCCCN1C(=O)/C(=c2\sc3n(c2=O)C2C(NN=3)N(CC)C(=O)N2CC)c2ccccc21` (stereo not drawn), the GI50 is 1.64 µM and the TGI was greater than 100 µM.
For `CN1CCN(CCCOc2cccc3nc(Nc4ccc(F)c(F)c4)ccc23)CC1` the same measures were 3.93 µM and 8.48 µM.
For `O=C(Oc1ccccc1)C(Br)C(Br)c1ccccc1` (stereo not drawn) the same measures were 14.2 µM and 27.5 µM.
Compound `O=c1[nH]nc(-c2ccc(F)cc2)cc1-c1ccccc1` showed a TGI greater than 100 µM.
In the case of `CC1=C(C#N)C(/C=C(\Cl)c2ccc(F)cc2)C(C#N)=C(C)N1`, the GI50 is greater than 100 µM and the TGI was greater than 100 µM.
`C[C@H]1O[C@@H](C(C)(C)C)OC(=O)[C@@H]1C(OC(=O)c1ccccc1)c1cccc2ccccc12` (stereo partly drawn) had a TGI greater than 100 µM.
For `CCC[CH2][Sn]([CH2]CCC)([CH2]CCC)[O]C(=O)C(OC)c1ccccc1` (stereo not drawn), the GI50 was 0.152 µM and the TGI was found to be 0.346 µM.
`O=c1[nH]c(=O)n(C2CC(O)C(CO)O2)cc1COCC(F)(F)F` (stereo not drawn) displayed a TGI greater than 100 µM.
`CC1(C)C(=O)C(=Cc2ccco2)C1=O` showed a TGI greater than 100 µM.
Still for that read-out and setting: with `CCOC1CCN(C(=O)c2ccccc2)O1` (stereo not drawn) the figure was greater than 10 µM; with `Cc1cc2c(cc1CO)N1Cc3cc(C)c(CO)cc3N(C2)C1`, greater than 100 µM.
With `CCOc1ccc(N=Cc2ccnc3ccccc23)cc1`, the TGI was greater than 100 µM.
`C#CC(O)/C=C/C(O)CCCC(O)CC#CC(O)C#CCCCCC(O)/C=C/CCCC(O)/C=C/CCCCCCCCCCCCCC(O)C(O)C#CC(=O)O` (stereo not drawn) registered a TGI greater than 25 µM.
Compound `COC(=O)CCC(=O)N1CC1C` (stereo not drawn) came in with a TGI greater than 100 µM.
In turn, `C=CCCC(=O)C(=[N+]=[N-])C(=O)CCC(=O)c1ccccc1` displayed a TGI greater than 10 µM.
`CC12CCC(CC1(Cl)Cl)C2` (stereo not drawn) yielded a TGI greater than 100 µM.
With `Cc1cn(C2OC(CO)C(O)C2F)c(=O)[nH]c1=O` (stereo not drawn), the TGI is greater than 100 µM.
Still for that read-out and setting: with `O=C(c1ccco1)N(C(=S)N1CCN(c2ccccn2)CC1)c1ccccc1` the figure was greater than 100 µM.
Turning to `Nc1nc2c(ccc3ccccc32)s1`, the GI50 is greater than 100 µM and the TGI was greater than 100 µM.
For the compound `COc1ccc(-c2n[nH]nc2-c2cc(OC)c3c(c2)OCO3)cc1`, the GI50 was 0.0557 µM and the TGI is greater than 100 µM.
For `CCCCCCCCCC(=O)NC(Cc1ccc(O)cc1)C(=O)NCCCNCCCCNCCCNC(=O)[C@@H](N)CCCN=C(N)N` (stereo partly drawn), the TGI was greater than 100 µM.
In turn, `NC(N)=N/N=C/c1c(-c2cc([N+](=O)[O-])c(Cl)cc2Cl)nc2n1CCS2` returned a TGI of 37.5 µM.
The same measure, in the same setting: with `CCOC(=O)C1=C(C(=O)OCC)C2(c3ccccc3)N(O1)c1ccccc1C2(C)C` (stereo not drawn) the figure was greater than 100 µM.
Turning to `COc1cc(-c2nccc3cc4c(cc23)OCO4)cc(OC)c1OC`, the GI50 is 8.29 µM and the TGI is greater than 100 µM.
Regarding `COc1cc(OC)c(C2(c3c(OC(C)C)c(=O)c3=O)SCCCS2)cc1OC`, the TGI is greater than 100 µM.
